# Laboratory results from article PMC4336329 (PLoS ONE, 2015).
# Out of some 310,000 compounds screened, about 14,000 (4.5%) showed an effect of 50% or more. The effect is printed as a negative number. Some of the results follow.
# Biological target: human ether-à-go-go-related gene (hERG) potassium channel (human, UniProt Q12809)
# Test: primary screen, population patch clamp on CHO cells stably expressing hERG
# 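Note: peak tail current of the secondary pulse compared with the same well before compound.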
# Sequence of human ether-à-go-go-related gene (hERG) potassium channel (Q12809 whole entry, looked up): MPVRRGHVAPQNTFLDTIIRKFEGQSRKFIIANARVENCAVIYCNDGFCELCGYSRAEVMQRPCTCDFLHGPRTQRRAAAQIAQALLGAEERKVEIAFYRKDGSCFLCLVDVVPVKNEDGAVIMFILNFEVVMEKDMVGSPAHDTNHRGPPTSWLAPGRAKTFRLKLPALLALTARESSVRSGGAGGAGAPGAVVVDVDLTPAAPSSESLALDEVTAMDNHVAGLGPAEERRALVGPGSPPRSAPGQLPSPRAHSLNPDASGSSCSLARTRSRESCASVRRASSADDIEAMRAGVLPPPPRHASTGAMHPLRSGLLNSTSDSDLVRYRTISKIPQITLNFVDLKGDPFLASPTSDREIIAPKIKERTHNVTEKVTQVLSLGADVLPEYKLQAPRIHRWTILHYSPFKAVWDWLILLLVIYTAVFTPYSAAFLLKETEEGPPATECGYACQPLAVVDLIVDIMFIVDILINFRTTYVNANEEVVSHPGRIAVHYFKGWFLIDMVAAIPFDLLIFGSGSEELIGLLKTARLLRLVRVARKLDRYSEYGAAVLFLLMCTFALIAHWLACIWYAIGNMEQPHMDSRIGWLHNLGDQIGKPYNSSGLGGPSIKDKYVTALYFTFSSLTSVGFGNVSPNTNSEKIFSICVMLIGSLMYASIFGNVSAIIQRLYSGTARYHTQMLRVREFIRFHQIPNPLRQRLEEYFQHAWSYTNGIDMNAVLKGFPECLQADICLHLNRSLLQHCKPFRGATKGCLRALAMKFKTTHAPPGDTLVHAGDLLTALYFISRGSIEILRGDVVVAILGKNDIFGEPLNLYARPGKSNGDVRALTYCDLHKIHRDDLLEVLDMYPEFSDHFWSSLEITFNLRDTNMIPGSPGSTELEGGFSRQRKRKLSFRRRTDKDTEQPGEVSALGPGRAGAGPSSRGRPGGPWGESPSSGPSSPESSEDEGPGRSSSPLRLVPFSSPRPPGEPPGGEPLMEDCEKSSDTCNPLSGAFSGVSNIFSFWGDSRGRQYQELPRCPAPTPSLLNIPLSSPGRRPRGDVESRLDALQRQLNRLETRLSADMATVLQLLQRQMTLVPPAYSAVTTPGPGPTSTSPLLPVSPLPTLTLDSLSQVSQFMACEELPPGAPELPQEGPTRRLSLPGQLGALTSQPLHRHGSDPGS
row,SMILES,"hERG current change (%, negative = inhibition) at 10uM"
1,COc1ccc(CC(=O)NNC(=S)Nc2ccc(Br)cc2)cc1,13.8%
2,Cc1[nH]c(=O)[nH]c(=O)c1N1CCOCC1,5.33%
3,CS(=O)(=O)NNC(=O)Cn1nnc(-c2ccc(OCc3ccccc3Cl)cc2)n1,18%
4,CCN(CCCNC(=O)C1CCN(S(=O)(=O)c2cnc[nH]2)CC1)c1ccccc1,26.1%
5,COc1cc2c(cc1OC)CN(S(=O)(=O)c1cccc(F)c1)CC2,18.6%
6,COc1ccc(C(=O)CCN2CCN(c3ccccc3F)CC2)cc1.Cl,-71.5%
7,CC(=O)N1c2ccc(S(=O)(=O)N3CCC(C(=O)NCc4ccc(F)cc4)CC3)cc2CC1C (stereo not drawn),4.87%
8,O=C(CSc1nnc(CNC(=O)c2ccccc2)o1)c1ccc(Cl)cc1,-30.3%
9,Cc1cc(NC(=O)CSc2nnc(Nc3ccccc3F)s2)no1,18.6%
10,CCCCNC(=O)CCSc1nc2nc(C)cc(C)n2n1,10.1%
11,O=C(Nc1cnccn1)c1csc2ccccc12,12.2%
12,Cc1ccc(C2C(=O)N(C3CCCC3)CC(=O)N2C2CCCCC2)cc1 (stereo not drawn),-25.4%
13,COc1c(C)cc(C(=O)C2CCCN(C(=O)CCCn3cncn3)C2)cc1C (stereo not drawn),-0.109%
14,O=C(CN1CCN(Cc2ccc(Cl)cc2)CC1)N/N=C/c1cccs1,-67.2%
15,Cc1cnc(C(=O)NC2CCSc3ccccc32)cn1 (stereo not drawn),11%
16,CCOc1ccc(NC(=O)CC2Nc3ccccc3NC2=O)cc1 (stereo not drawn),11.4%
17,CCC(C(=O)N1CCC2(CC1)OCCO2)c1ccccc1 (stereo not drawn),-7.86%
18,CCN(CC)c1nc(N)c([N+](=O)[O-])c(NCCO)n1,12.1%
19,Cc1c(CCO)c(=O)[nH]n1C(=O)c1ccc(F)cc1,29.9%

row,SMILES,"hERG current change (%, negative = inhibition) at 10uM"
1,Cc1nn(C)c(Cl)c1CN1CCCC(C(=O)Nc2ccc(-c3cscn3)cc2)C1 (stereo not drawn),-7.54%
2,Cc1sc2ncnc(N=Nc3c(O)[nH]c4ccccc34)c2c1C,17.5%
3,CC(C)(C)NC(=O)COC(=O)c1ccccc1OCC(=O)Nc1ccc(Br)cc1,11.4%
4,Cc1cnc(C(=O)Nc2ccc(OC(F)(F)F)cc2)cn1,-9.93%
5,Cc1cc(C(C)(C)C)oc1C(=O)N(CC(=O)NC1CCCC1)c1c(C)cccc1C,-4.68%
6,Cc1cccc(NC(=O)CCS(=O)(=O)c2ccccc2)c1,10.4%
7,Cc1ccc(C)c(NC2=NC3(CCCCC3)N=C(N)N2)c1,3.52%
8,CSc1ccccc1C(=O)NCCSC(C)(C)C,6.86%
9,CCCN(CCC)CCCNC(=O)CC(C(=O)N1CCc2ccccc21)n1ccnc1 (stereo not drawn),-0.225%
10,c1ccc(C2[C@H]3CN(Cc4cccnc4)[C@H](c4ccccc4)C34CC2(c2cccnc2)C4)cc1 (stereo partly drawn),-5.03%
11,Cc1ccc(Sc2ncccc2C(=O)NCC(c2ccc(F)cc2)N2CCOCC2)cc1C (stereo not drawn),-29.4%
12,O=C(Cc1noc2ccccc12)NNC(=S)Nc1ccccc1,20.1%
13,O=C(c1ccco1)N1C(=O)c2cccc3c(S(=O)(=O)N4CCCC4)ccc1c23,5.4%
14,CCC(=O)Nc1c(S(=O)(=O)c2ccccc2)c2nc3ccccc3nc2n1Cc1ccccc1,-0.531%
15,CC(=O)c1c(C)[nH]c(C(=O)N(C)CC(=O)Nc2ccc(Cl)c(C(F)(F)F)c2)c1C,-7.97%
16,COc1ccc(/C=C2\Oc3cc(OCC(N)=O)ccc3C2=O)cc1OC,-0.36%
17,CSc1c(-c2ccccc2)nc2ccccc2c1C(=O)O,27%
18,COC(=O)/C(N=Nc1c(C)n(C)n(-c2ccccc2)c1=O)=C(\C)O,9.02%
19,O=C(NNc1c([N+](=O)[O-])cc(C(F)(F)F)cc1[N+](=O)[O-])c1ccco1,21.8%

row,SMILES,"hERG current change (%, negative = inhibition) at 10uM"
1,COCCCNC(=S)Nc1ccc(N2CCCCC2)cc1,3.5%
2,NS(=O)(=O)c1ccc(NC(=S)NC2CCCC2)cc1,7.37%
3,O=C(Nc1ccc(Cl)cc1C(F)(F)F)C(Sc1nnc(-c2cccs2)o1)c1ccccc1 (stereo not drawn),5.82%
4,CC1CC(=O)N(C)c2cc([N+](=O)[O-])ccc2N1 (stereo not drawn),1.18%
5,Cc1ccc(N(CC(O)CN2CCCC2)S(=O)(=O)c2ccccc2)cc1 (stereo not drawn),-68.2%
6,Cc1ccc(NC(=O)CN(C)CC(=O)N(CC(C)C)c2c(N)n(CC(C)C)c(=O)[nH]c2=O)c(C)c1,6.94%
7,Cc1csc2ncc(C(=O)Nc3ccccc3F)c(=O)n12,-2.87%
8,Cc1[nH]n(C(N)=S)c(=O)c1N=Nc1ccc(Br)cc1,30.3%
9,COc1cccc(C(C(=O)NC2CCCCC2)N(C(=O)c2ccco2)c2ccc(-n3cnnn3)c(C)c2)c1 (stereo not drawn),-32.7%
10,CCN(CC)CCCNC(=S)N(CCO)Cc1cc2cc3c(cc2[nH]c1=O)OCO3,8.27%
11,COc1cccc(N2CCN(C(=O)CN3C(=O)NC4(CCCC4)C3=O)CC2)c1,7.99%
12,CCCCCCCCOC(=O)CCn1[nH]c(=O)c2ccccc2c1=O,-3.56%
13,O=C(/C=C/c1c(F)cccc1Cl)NCCCN1CCOCC1,-12.3%
14,COCc1cc(C)n(CC(=O)OC)c(=O)c1C#N,11.9%
15,Cc1ccccc1CC1(CO)CCCN(C(=O)CCC(F)(F)F)C1 (stereo not drawn),11.9%
16,O=C(Oc1ccccc1)c1cccc2cccnc12,-8.65%
17,Cc1c(-n2cc(C(=O)O)c(=O)c3cc(F)c(N4CCCC4)c(F)c32)c(=O)n(-c2ccccc2)n1C,20.7%
18,CCc1ccc(Oc2cc(Cl)nc(N)n2)cc1,3.44%
19,CC(=O)Nc1ccccc1NC(=O)C(F)(F)F,19.6%
